Measured values published in PMC3493617 (Journal of the American Chemical Society, 2012).

How the values were obtained:
Format in all cases: biochemical
AfUGM R447A = AfUGM R447A (Aspergillus fumigatus, UniProt Q4W1X2, R447A)
AfUGM Y317A = AfUGM Y317A (Aspergillus fumigatus, UniProt Q4W1X2, Y317A)
AfUGM Y104A = AfUGM Y104A (Aspergillus fumigatus, UniProt Q4W1X2, Y104A)

With `NC(=O)C1=CN([C@@H]2O[C@H](COP(=O)(O)OP(=O)(O)OC[C@H]3O[C@@H](n4cnc5c(N)ncnc54)[C@H](OP(=O)(O)O)[C@@H]3O)[C@@H](O)[C@H]2O)C=CC1` [NADPH] the Kd (AfUGM R447A; R447A mutant) was 39 ± 6 µM, the “Variational Effect (kred/Kd of variant)/(kred/Kd of AfUGM)” value (“Variational Effect” below) (AfUGM R447A; R447A mutant) was 0.0005 ± 0.0001 and the kred/Kd (AfUGM R447A; R447A mutant) was 60 ± 10 M⁻¹ s⁻¹. The kred (AfUGM R447A; R447A mutant, anaerobic, 15 °C, pH 7.0) was 0.0024 ± 0.00007 s⁻¹, the “factor by which catalytic efficiency is lowered” value (AfUGM R447A; R447A vs AfUGM) was 2000 fold and the “decrease in catalytic efficiency” value (AfUGM Y317A; Tyr317 mutation vs AfUGM) was 3 fold. For the same molecule, the Kd (AfUGM Y317A; Y317A mutant) was 100 ± 10 µM, the “Variational Effect” value (AfUGM Y317A; Y317A mutant) was 0.28 ± 0.03 and the kred/Kd (AfUGM Y317A; Y317A mutant) was 34000 ± 3000 M⁻¹ s⁻¹. The kred (AfUGM Y317A; Y317A mutant, anaerobic, 15 °C, pH 7.0) was 3.36 ± 0.09 s⁻¹, the “decrease in catalytic efficiency” value (AfUGM Y104A; Tyr104 mutation vs AfUGM) was 3 fold and the Kd (AfUGM Y104A; Y104A mutant) was 54 ± 4 µM. For the same molecule, the “Variational Effect” value (AfUGM Y104A; Y104A mutant) was 0.34 ± 0.04, the kred/Kd (AfUGM Y104A; Y104A mutant) was 41000 ± 3000 M⁻¹ s⁻¹ and the kred (AfUGM Y104A; Y104A mutant, anaerobic, 15 °C, pH 7.0) was 2.20 ± 0.04 s⁻¹.
